A value given as a limit tells only on which side of the number the result lay.

This note sets out measurements from patent publication US20230183366A1 (INSERM INSTITUT NATIONAL DE LA SANT ET DE LA RECHERCH M …, published 2023).

The target of the assay is T1, human OX40 on primed human CD4+ T cells (human, UniProt P43489 29-277).
T1 sequence (looked up): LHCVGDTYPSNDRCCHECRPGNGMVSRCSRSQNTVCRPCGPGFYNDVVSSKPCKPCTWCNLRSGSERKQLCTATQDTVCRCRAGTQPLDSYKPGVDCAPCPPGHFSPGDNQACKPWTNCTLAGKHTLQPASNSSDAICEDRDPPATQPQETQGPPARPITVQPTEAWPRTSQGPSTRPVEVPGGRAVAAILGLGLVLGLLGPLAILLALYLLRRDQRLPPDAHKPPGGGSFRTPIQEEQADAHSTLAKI
Description: cell-based or functional assay.

B1: anti OX40 Ab24-OX40L fusion IgG1 (other)
heavy: QVQLQESGPGLVKPSQTLSLTCAVYGGSFSSGYWNWIRKHPGKGLEYIGYISYNGITYHNPSLKSRITINRDTSKNQYSLQLNSVTPEDTAVYYCARYKYDYDGGHAMDYWGQGTLVTVSSASTKGPSVFPLAPCSRSTSGGTAALGCLVKDYFPEPVTVSWNSGALTSGVHTFPAVLQSSGLYSLSSVVTVPSSSLGTQTYICNVNHKPSNTKVDKRV[human IgG1 Fc and a few adjoining residues left out]
light: DIQMTQSPSSLSASVGDRVTITCRASQDISNYLNWYQQKPGKAPKLLIYYTSKLHSGVPSRFSGSGSGTDYTLTISSLQPEDFATYYCQQGSALPWTFGQGTKVEIKRTVAAPSVFIFPPSDEQLKSGTASVVCLLNNFYPREAKVQWKVDNALQSGNSQESVTEQDSKDSTYSLSSTLTLSKADYEKHKVYACEVTHQGLSSPVTKSFNRGECASQTPTNTISVTPTNNSTPTNNSNPKPNPASHFSALQVSHRYPRIQSIKVQFTEYKKEKGFILTSQKEDEIMKVQNNSVIINCDGFYLISLKGYFSQEVNISLHYQKDEEPLFQLKKVRSVNSLMVASLTYKDKVYLNVTTDNTSLDDFHVNGGELILIHQNPGEFCVLAS
As to B1, the “potency in the CD4+ T cell proliferation and cytokine assay, relative to OX40L IgG1” value was more than 2 logs.
